In PubChem BioAssay AID1466 (National Center for Advancing Translational Sciences (NCATS), 2008):
Screen size: about 200,000 compounds; about 10 (0.005%) were called active. The inconclusive results got no clear call from the source; some entries with a clear call stand among them for comparison. Calls come from the whole dose curve; as a rule, active = well fitted inhibition curve with a large enough effect; inconclusive = small, poorly fitted or top-dose-only effect, or effect the other way, or another doubt; inactive = no such curve, though single readings can be large or run the other way. Potencies of inconclusive entries are left out as doubtful fits.

Each compound was assayed against Lysosomal alpha-glucosidase (Homo sapiens) (UniProt P10253) (assay: qHTS Assay for Inhibitors of Human alpha-Glucosidase as a Potential Chaperone Treatment of Pompe Disease). Conditions: purified human GAA, 4-MU-alpha-glucoside fluorescence; activity change, negative = inhibition: at 76.9 µM (top of the series) unless noted.
Method in brief: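 Enzyme (4 nM final) mixed with compound (up to 77 uM), then 4-MU-alpha-D-pyranoside (400 uM final) added; 20 min at room temperature, pH 5.0. Reaction stopped at pH 10, fluorescence read, AC50 derived by Hill fit.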
Potency is the fitted concentration of half-maximal effect; tags give direction and shape of the fitted curve.
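Throughout, for activity change, negative = inhibition: plate controls were uninhibited enzyme wells for no effect and no-enzyme background for full effect.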

| Compound | activity change, negative = inhibition | Potency |
| --- | --- | --- |
| Cn1c(C(=O)N2CCCC(C(=O)NCc3ccc4c(c3)OCO4)C2)cc2sccc21 (stereo not given) | inconclusive: -15.4% [inhibitor] | – |
| Cc1ccccc1Nc1cc2ccccc2c(=O)[nH]1 | – | inconclusive [inhibitor, full curve] |
| CN(C)Cc1c(O)c(Cl)cc2c3c(c(=O)oc12)CCCC3 | – | inconclusive [activator, partial curve] |
| O=C(c1ccc(-c2nnc(Nc3cccc(Cl)c3)c3ccccc23)cc1)N1C[C@H]2C[C@H](C1)c1cccc(=O)n1C2 | – | inconclusive [inhibitor, single point] |
| N#Cc1c(C(F)(F)F)cc(C2CC2)nc1N1CCCC1 | – | inconclusive [activator, single point] |
| COc1ccc(CCNC(=O)C(=O)NCc2ccccn2)cc1 | inconclusive: 13.9% [activator] | – |
| COc1cc2cc(C(c3nnnn3C(C)(C)C)N3CCc4ccccc4C3)c(=O)[nH]c2cc1OC (stereo not given) | – | inconclusive [activator, partial curve, poor fit] |
| CN(C)c1nc(NCc2ccccc2)nc(N/N=C/c2ccc(Br)cc2)n1 | – | inactive |
| O=C(COC(=O)c1ccccc1C(=O)N1CCN(c2ccccc2)CC1)Nc1ccccc1 | inconclusive: -22% [inhibitor] | – |
| Cc1nc2cc(N3CCN(C)CC3)c(NC(=O)Cc3ccccc3)cc2c(=O)n1Cc1ccccc1 | – | inconclusive [inhibitor, single point] |
| Cc1nc(C)c2c(=O)cc(-c3ccccc3)[nH]c2n1 | – | inconclusive [activator, partial curve, poor fit] |
| COc1ccc(NS(=O)(=O)c2ccc3nc(COc4ccc(C#N)cc4)[nH]c3c2)cc1 | – | inconclusive [inhibitor, full curve, poor fit] |
| COc1ccc2c(c1)c1ncn(CCCN3CCOCC3)c(=O)c1n2C | – | inconclusive [activator, partial curve] |
| COc1cc(-c2nnc(SCC(=O)N(Cc3ccccc3)C(C)(C)C)o2)cc(OC)c1OC | – | inconclusive [inhibitor, partial curve, poor fit] |
| CSc1nsc(SC)c1C(=O)N1CCN(S(=O)(=O)c2ccc(C)cc2)C1C (stereo not given) | – | inconclusive [inhibitor, single point] |
| COc1cccc(/C=C/C(=C2/C(=O)N(c3ccccc3)N=C2C)c2ccc(Br)cc2)c1OC | – | inconclusive [inhibitor, single point] |
| COC(=O)c1ccc(C(NC(=O)OCc2ccccc2)/C(C)=C/[C@@H](C)C(=O)NCc2ccc(-c3ccccc3)cc2)cc1 (stereo not given in full) | – | inconclusive [inhibitor, single point] |
| Cc1ccc(C(=O)Nc2ccccc2-c2ccccc2)cc1S(=O)(=O)Nc1cccc(C)c1C | – | inconclusive [inhibitor, single point] |
| CC(=O)Nc1nc2ccc(-c3nc4ccccc4o3)cc2s1 | – | inconclusive [activator, partial curve] |
| CCn1cc(C(=O)NCc2ccco2)c(=O)c2cc(F)c(N3CCN(C(=O)c4ccco4)CC3)cc21 | – | inconclusive [inhibitor, single point] |

| Compound | activity change, negative = inhibition | Potency |
| --- | --- | --- |
| CCOC(=O)C(=CNc1cscc1S(=O)(=O)C(C)C)C(=O)OCC | – | inconclusive [inhibitor, full curve, poor fit] |
| CS(=O)(=O)c1cccc(C(=O)NC(c2ccccc2)c2ccccc2)c1 | – | inconclusive [activator, partial curve, poor fit] |
| CCc1nnc(NC(=O)CSc2nc(C)c3c(c2C#N)CCCC3)s1 | – | inconclusive [activator, partial curve] |
| COc1ccc(Br)c(-c2nc(CS(=O)(=O)c3ccc(F)cc3)no2)c1 | – | inconclusive [inhibitor, partial curve] |
| CC(C)N(CCn1c(SCC(=O)N2CC(=O)Nc3ccccc32)nc2ccccc2c1=O)C(C)C | – | inconclusive [inhibitor, single point] |
| COc1cc(NC(=O)c2ccc(S(=O)(=O)N(C)C)cc2)cc(OC)c1OC | – | inconclusive [inhibitor, single point] |
| O=C(Nc1ccccc1C(=O)N1CCOCC1)c1ccc(F)cc1 | – | inconclusive [inhibitor, partial curve] |
| CC1CC(C)CN(CCC(=O)Nc2ccc3c(c2)CCC3)C1 (stereo not given) | inconclusive: 7.48% [activator] | – |
| CO[C@H]1C=CO[C@@]2(C)Oc3c(C)c(O)c4c(O)c(c(C=NN5CCN(C)CC5)c(O)c4c3C2=O)NC(=O)C(C)=CC=C[C@H](C)[C@H](O)[C@@H](C)[C@@H](O)[C@@H](C)[C@H](OC(C)=O)[C@@H]1C | inactive: -19.2% [at 15.4 µM] | – |
| Cc1cc(C)cc(C(=O)n2cnnc2N)c1 | – | inconclusive [inhibitor, full curve] |
| Cc1ccc2[nH]c3c(NCCN4CCOCC4)ncnc3c2c1 | inconclusive: -18.1% [inhibitor] | – |
| N/C(=N\NC(=O)c1ccccc1Cl)c1cc2ccccc2oc1=O | – | inconclusive [inhibitor, single point] |
| CCCCN(C)CCn1c(=S)[nH]c2cc(OCC)c(OCC)cc2c1=O | inconclusive: -18.8% [inhibitor] | – |
| Cc1ccc(Cl)cc1N1CCN(C(=O)CCS(=O)(=O)c2cccc3nonc23)CC1 | – | inconclusive [inhibitor, full curve] |
| COc1cccc(-n2nnc3c(=O)n(Cc4ccc(F)cc4)cnc32)c1 | – | inconclusive [inhibitor, partial curve, poor fit] |
| O=C(c1ccc2c(c1)OCO2)C1CCCN(Cc2cccn2-c2cccnc2)C1 (stereo not given) | – | inconclusive [inhibitor, single point] |
| CCOC(=O)c1c(-c2ccccc2)oc2ccc(O)c(CN3CCCC3)c12 | – | inconclusive [inhibitor, partial curve, poor fit] |
| CCOc1cc(C)c(S(=O)(=O)NC2CCCCC2)cc1C | – | inconclusive [inhibitor, partial curve, poor fit] |
| COc1ccc(C(=O)NCCNc2ccccc2[N+](=O)[O-])cc1 | – | inconclusive [inhibitor, single point] |
| O=C(Oc1ccc([N+](=O)[O-])cc1)c1ccc2ccccc2n1 | – | inconclusive [inhibitor, single point] |

| Compound | activity change, negative = inhibition | Potency |
| --- | --- | --- |
| O=C(Nc1ccccc1Cl)N1C2CCC1CC(O)(c1cccnc1)C2 (stereo not given) | inconclusive: 14.8% [activator] | – |
| O=C1c2ccccc2-c2c1cccc2C(=O)N1CCN(C(=O)c2ccco2)CC1 | – | inactive |
| COC(=O)[C@H](CCSC)NC(=O)Nc1ccc(C(C)=O)cc1 | – | inconclusive [inhibitor, single point] |
| Nc1c(C(=O)c2ccccc2)sc(Nc2ccccc2)c1S(=O)(=O)c1ccccc1 | – | inconclusive [inhibitor, single point] |
| CCOC(=O)/C(=C/C=C1\Sc2cc(OCC)c(OCC)cc2N1CC)C(C)=O | – | inconclusive [inhibitor, single point] |
| COc1ccc(C2CC(=O)C3=C(C2)Nc2ncnn2C3c2ccccc2C)cc1 (stereo not given) | – | inconclusive [activator, partial curve, poor fit] |
| CCC(=O)c1ccc(N2CCN(C(=O)c3ccccc3)CC2)c(F)c1 | inconclusive: 15.4% [activator] | – |
| O=C(c1cc2ccc([N+](=O)[O-])cc2oc1=O)N1CCOCC1 | inconclusive: -15.3% [inhibitor] | – |
| COCCNC(=O)c1cccc(Nc2nc(-c3ccccc3)c3cc(Cl)ccc3n2)c1 | – | inconclusive [inhibitor, full curve, poor fit] |
| N=c1c(S(=O)(=O)c2ccc(Cl)cc2)cc2c(=O)n3ccccc3nc2n1CCN1CCOCC1 | – | inconclusive [activator, partial curve] |
| CCOC(=O)c1nc(Nc2ccc(C(=O)OC)cc2)c2ccccc2n1 | – | inconclusive [activator, single point] |
| CCCCCOc1ccc(NC(=O)CCCC(=O)O)cc1 | – | inconclusive [inhibitor, single point] |
| Cc1ccc(NC(=S)NCc2cccs2)c(C)c1 | – | inconclusive [inhibitor, single point] |
| O=C(COC(=O)c1cc(-c2cccs2)nc2ccccc12)NC1CCS(=O)(=O)C1 (stereo not given) | – | inconclusive [activator, partial curve] |
| CC(C)=CC(=O)Nc1ccc(Cl)cc1 | – | inconclusive [inhibitor, full curve] |
| C1CC1Cc1noc(CN2CCN(C3C4CC5CC(C4)CC3C5)CC2)n1 (stereo not given) | – | inconclusive [activator, full curve, poor fit] |
| N#Cc1c(Sc2ncc(C(F)(F)F)cc2Cl)nsc1C/C=N\OCc1c(F)cccc1Cl | – | inconclusive [inhibitor, single point] |
| OCCC1CN(Cc2cccc(O)c2)CCN1CCc1ccccc1 (stereo not given) | inconclusive: 16.8% [activator] | – |
| Cc1nc2ccc(S(=O)(=O)Nc3ccc(-c4nc5cccnc5s4)cc3)cc2s1 | – | inconclusive [activator, partial curve] |
| CCOP(=O)(OCC)c1nc(-c2cccc3ccccc23)oc1NCc1ccccc1 | inconclusive: 141% [activator] | – |
